# Laboratory results: PubChem BioAssay
# Inconclusive means that the source gave no clear call. Such entries were picked first, then a sample of the others. Active and inactive are the calls of the source.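 How the source made its calls, unless noted: active means thallium flux slope beyond 3 SD from same-plate DMSO control mean in most replicates, usually higher, sometimes lower; inconclusive means repeat tests gave conflicting results; inactive means no significant difference from controls in most replicates.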
# What was measured:
# [1] = FluoZin2 fluorescence counter-screen of MLSMR hits on KCC2-expressing cells (AID 1714;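 active means thallium entry rate above the same plate's blocked-transporter control wells by more than 3 SD; inconclusive means the two repeat wells disagree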;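 further: raw slope of fluorescence over initial fluorescence between 10 and 20 s after thallium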); settings: HEK293-KCC2 + bumetanide/ouabain, at 10 µM, active compounds read high
# Method in brief: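 material = KCC2-expressing HEK cells | reagent = thallium stimulus | compound dosing = 10 µM single dose | schedule = cells overnight at 37 °C, FluoZin2-AM dye loading 48 min | technique = kinetic FluoZin2 fluorescence, ex 480/em 540 nm | evaluation = normalized thallium flux slope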
# [2] = target: Solute carrier family 12 member 5 (Homo sapiens) (UniProt Q9H2X9); experiment: modulation of KCC2 thallium flux in HEK cells – cell-based, ouabain, retest, confirmation (AID 1717); settings: HEK293-KCC2, thallium flux FluoZin2 fluorescence, at 10 µM, bidirectional: low = inhibitor, high = activator;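 further: slope of initial-normalized fluorescence between seconds 10 and 20 after thallium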
# Chain of UniProt Q9H2X9 (Q9H2X9 whole entry, looked up): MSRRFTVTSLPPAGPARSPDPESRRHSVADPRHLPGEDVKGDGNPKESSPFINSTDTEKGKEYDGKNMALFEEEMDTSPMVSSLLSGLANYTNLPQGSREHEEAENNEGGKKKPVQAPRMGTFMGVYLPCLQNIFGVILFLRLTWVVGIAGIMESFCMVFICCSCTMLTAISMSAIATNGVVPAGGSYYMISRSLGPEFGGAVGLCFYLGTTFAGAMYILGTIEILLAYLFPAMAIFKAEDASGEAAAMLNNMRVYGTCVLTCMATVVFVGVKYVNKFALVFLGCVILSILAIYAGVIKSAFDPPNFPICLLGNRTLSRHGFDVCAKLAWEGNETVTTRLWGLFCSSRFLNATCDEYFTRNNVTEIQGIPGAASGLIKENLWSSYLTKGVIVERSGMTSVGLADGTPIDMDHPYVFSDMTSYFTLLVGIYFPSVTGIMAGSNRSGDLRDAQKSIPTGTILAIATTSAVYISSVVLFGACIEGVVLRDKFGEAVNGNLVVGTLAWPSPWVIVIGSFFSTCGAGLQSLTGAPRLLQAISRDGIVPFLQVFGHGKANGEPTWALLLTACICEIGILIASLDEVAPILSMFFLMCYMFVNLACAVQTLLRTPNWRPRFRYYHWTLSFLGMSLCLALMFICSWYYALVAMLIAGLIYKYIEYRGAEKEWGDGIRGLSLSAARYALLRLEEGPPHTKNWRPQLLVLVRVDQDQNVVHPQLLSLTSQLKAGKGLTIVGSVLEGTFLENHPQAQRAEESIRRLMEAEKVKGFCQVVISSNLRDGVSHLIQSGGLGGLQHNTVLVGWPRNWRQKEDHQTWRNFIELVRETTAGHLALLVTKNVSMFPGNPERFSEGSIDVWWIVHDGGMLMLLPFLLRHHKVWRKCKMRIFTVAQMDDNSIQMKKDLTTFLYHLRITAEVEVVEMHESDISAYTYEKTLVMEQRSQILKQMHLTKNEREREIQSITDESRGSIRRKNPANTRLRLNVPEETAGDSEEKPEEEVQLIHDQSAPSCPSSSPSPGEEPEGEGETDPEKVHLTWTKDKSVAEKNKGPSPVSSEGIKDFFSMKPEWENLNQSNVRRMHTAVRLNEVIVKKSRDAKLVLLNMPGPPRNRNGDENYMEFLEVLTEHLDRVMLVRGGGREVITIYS
# [3] = native HEK Tl+ uptake effects, second counter-screen – HEK cells, counterscreen 2, counter-screen for KCC2 modulator project, confirmation (AID 1718;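 active means thallium flux slope above the same plate's solvent-control mean plus 3 SD in both duplicate wells; inconclusive means duplicate wells that disagreed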;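 further: run without ouabain in cells lacking the KCC2 cotransporter; slope of fluorescence scaled to its starting value between 10 and 20 s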); settings: HEK293 parental, thallium flux FluoZin-2 fluorescence slope; at 10 µM
# Method in brief: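 System: Parental HEK cells | Also added: Thallium sulfate stimulus buffer | Compound dosing: Single 10 µM final compound dose, 0.1% DMSO | Schedule: Overnight cell culture at 37 °C, 48 min dye loading, compound before thallium | Signal: FluoZin-2 fluorescence kinetics | Repeats: Replicate wells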
# [4] = target: Solute carrier family 12 member 5 (Homo sapiens) (UniProt Q9H2X9); experiment: retest of KCC2 transport modulation, ouabain-free – cell-based, HEK293 KCC2, thallium flux, FluoZin2, secondary assay 2, confirmation (AID 1715;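 active means thallium flux slope more than 3 SD above or below the plate's solvent-only control mean, mostly below; inconclusive means the two repeat wells disagreed; inactive means no significant shift from solvent-only controls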;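 further: raw slope with 0.1% DMSO as baseline and bumetanide as block control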); settings: HEK293-KCC2, thallium flux FluoZin2 fluorescence; at 10 µM; actives lie on both sides; F/F0 rise rate, 10–20 s post-thallium
# [5] = compound effects on native HEK Tl+ uptake – HEK cells, counterscreen 1, counter-screen for KCC2 modulator project, confirmation (AID 1716;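 active means thallium flux rate significantly above the same plate's solvent-only control wells, beyond their mean plus 3 SD; inconclusive means the two replicate wells gave conflicting results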); settings: HEK293 parental cells, thallium flux FluoZin2, ouabain; at 10 µM; baseline-ratio fluorescence slope, 10–20 s after thallium
SMILES,normalized thallium flux [1],"raw Tl+ flux slope (below DMSO = inhibition, above = activation) [2]",thallium flux slope [3],normalized thallium flux [4],thallium flux rate (normalised fluorescence) [5]
Cn1c(C(=O)OC(C(=O)NC2CCCC2)c2ccncc2)cc2sccc21 (stereo not drawn),inconclusive: 0.00541,inconclusive: 0.0165,inactive: 0.0101,,
Cn1c(C(=O)NCCN2CCN(c3ccccc3F)CC2)cc2c(=O)n(C)c3ccccc3c21,inactive: 0.00476,inconclusive: 0.0151,inactive: 0.0113,,
Cc1ccc(O)c(N=Cc2cc(Cc3ccccc3)cc([N+](=O)[O-])c2O)c1,inconclusive: 0.00875,active: 0.0143,inconclusive: 0.00899,,
Cc1ccc(/C=N/n2c(-c3ccc(Cl)cc3)n[nH]c2=S)s1,active: 0.0121,inconclusive: 0.0239,,,
O=C(/C=C/c1cccs1)Nc1scc(-c2ccccc2)c1C(=O)O,inconclusive: 0.0054,active: 0.0135,,,
S=C(Nc1ccc(Cl)cc1Cl)NC1CCN(Cc2ccccc2)CC1,inconclusive: 0.00723,active: 0.021,inconclusive: 0.0103,,
CCN(CC)CCn1c(=S)[nH]c2ccc(Br)cc2c1=O,active: 0.0171,inactive: 0.0196,inconclusive: 0.0129,,
O=C(Nc1ccc2oc(-c3ccccc3F)nc2c1)c1ccco1,inactive: 0.00477,inactive: 0.0137,,,
Cc1ccc(-n2[nH]c(C)c(/C=N/Nc3ccc([N+](=O)[O-])cc3[N+](=O)[O-])c2=O)cc1,active: 0.011,inconclusive: 0.0173,,,
CCc1c(C)[nH]c2ccccc2c1=O,inconclusive: 0.00514,inactive: 0.0189,,,
O=C(CSc1ncccc1-c1nc2ccccc2[nH]1)N1CCN(c2ccccc2F)CC1,inactive: 0.00502,inconclusive: 0.0171,,,
Cc1oc(-c2ccccc2)nc1CS(=O)CC(=O)N1CCc2ccccc2C1 (stereo not drawn),inconclusive: 0.00631,inconclusive: 0.0172,,,
O=[N+]([O-])c1ccc(O)c(/C=N/n2cnc3ccccc32)c1,inactive: 0.00492,active: 0.0132,inconclusive: 0.0092,,
C(=N\NC1=Nc2cccc3cccc1c23)/c1cccnc1,inconclusive: 0.00864,active: 0.0157,,,
C(=C\c1ccccc1)/CSc1nnc(-c2ccccc2)n1Cc1ccco1,inconclusive: 0.00244,active: 0.0125,active: 0.00745,,
CN1CCC(N(C)C(=S)NC(=O)c2cc(-c3cccc(Br)c3)nc3ccccc23)CC1,active: 0.0149,inconclusive: 0.0277,,,
S=c1nc(-c2sccc2OCc2ccc(Cl)cc2Cl)[nH][nH]1,active: 0.0866,inconclusive: 0.0335,,,
CCC(=O)NC(=S)NNC(=O)COc1ccc(Br)cc1,active: 0.019,inconclusive: 0.0249,,,
Cc1cccc(OCCc2nnc(N)s2)c1C,inactive: 0.00492,inconclusive: 0.0166,,,

SMILES,normalized thallium flux [1],"raw Tl+ flux slope (below DMSO = inhibition, above = activation) [2]",thallium flux slope [3],normalized thallium flux [4],thallium flux rate (normalised fluorescence) [5]
O=C(C1CCN(S(=O)(=O)c2cccc3cccnc23)CC1)N1CCN(c2ccc(Cl)cc2)CC1,inconclusive: 0.0068,inactive: 0.0207,inactive: 0.0101,,
CCc1ccc(Nc2nnc(SCC(=O)Nc3sccc3C(N)=O)s2)cc1,inactive: 0.00468,inconclusive: 0.0142,,,
Cc1cc(C)c2nc(SC3CCOC3=O)cc(C)c2c1 (stereo not drawn),inconclusive: 0.00805,inactive: 0.0472,inconclusive: 0.0107,,
Cc1ccc2nc(N/C(=N/S(=O)(=O)c3cccs3)c3ccccc3Cl)sc2c1,active: 0.0229,inconclusive: 0.0245,active: 0.0168,,
COc1ccc(/C(C)=N/NC(=S)NCCc2ccccc2)cc1,active: 0.0162,inconclusive: 0.0227,inconclusive: 0.012,,
C/C(=N\NC(=O)c1cccc([N+](=O)[O-])c1)c1cccs1,active: 0.0234,inconclusive: 0.0265,inconclusive: 0.0127,,
Cc1cc(NC(=O)CSc2ccc(-c3ccc(F)cc3)nn2)no1,inactive: 0.00503,inconclusive: 0.0166,,,
O=C(CCCn1ncn2c(cc3occc32)c1=O)N1CCc2ccccc2C1,inactive: 0.00494,inconclusive: 0.017,,,
O=C1CC(N(O)C2CC(=O)N(Cc3ccccc3)C2=O)C(=O)N1Cc1ccccc1 (stereo not drawn),inactive: 0.00485,inconclusive: 0.0174,,,
O=C(CCS(=O)(=O)Cc1ccccc1)Nc1nc2c(s1)CCCC2,inactive: 0.00456,inconclusive: 0.0159,inactive: 0.0105,,
O=C(c1ccc(N2CCCCCC2)c([N+](=O)[O-])c1)N1CCc2ccccc21,inconclusive: 0.00659,inactive: 0.0118,inactive: 0.00942,,
S=c1[nH]nc(Cc2cccc3ccccc23)o1,inactive: 0.00518,inconclusive: 0.0122,inactive: 0.01,,
O=C(NCc1cccnc1)C1c2ccccc2C(=O)N1C1CCCCCC1 (stereo not drawn),inactive: 0.00707,inactive: 0.0228,inconclusive: 0.0115,,
C=CCNc1oc(Cc2cccc3ccccc23)nc1C#N,inactive: 0.00481,inconclusive: 0.0153,,,
CC1=NN(C(N)=S)C(=O)C1N=Nc1cccc2ccccc12 (stereo not drawn),active: 0.0464,inconclusive: 0.0239,inconclusive: 0.0112,,
O=C(Nc1cccc2ccccc12)N1CCN(c2ncccn2)CC1,inconclusive: 0.00635,inactive: 0.0183,inactive: 0.0106,,
O=C(CCc1ccccc1)NC(=S)Nc1cccc(Br)c1,,inconclusive: 0.0238,,inactive: 0.0285,active: 0.00862
O=C(CN1C(=O)S/C(=C\C=C\c2ccccc2)C1=O)Nc1ccccc1C(=O)O,,,,inconclusive: 0.03,inconclusive: 0.00622
